Measurements from the BET-seq Pho4 binding data (Le et al. 2018).
This is one part of the list. These are noisy estimates, calculated here from bound and input reads.

target: T1, Pho4 (S. cerevisiae) (UniProt P07270); assay: relative binding free energy (BET-seq); higher = weaker binding; settings: reference: library average
T1 sequence: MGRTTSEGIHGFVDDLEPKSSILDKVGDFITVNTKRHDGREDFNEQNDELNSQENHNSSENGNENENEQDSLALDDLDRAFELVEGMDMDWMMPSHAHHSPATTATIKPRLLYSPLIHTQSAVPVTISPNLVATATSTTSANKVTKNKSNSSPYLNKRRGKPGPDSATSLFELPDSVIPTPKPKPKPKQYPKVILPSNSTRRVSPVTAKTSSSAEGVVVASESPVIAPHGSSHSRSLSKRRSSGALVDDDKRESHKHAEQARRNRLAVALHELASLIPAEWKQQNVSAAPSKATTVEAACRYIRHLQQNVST

| Sequence | relative binding free energy [kcal/mol] |
| --- | --- |
| GGGGGCACGTGGGAAC | -0.23 |
| GTGTTCACGTGTGTCT | 0.3 |
| TTATACACGTGCTGAT | -0.01 |
| TGATGCACGTGCTTGT | -0.03 |
| TAGCACACGTGTAGGG | 0.12 |
| TTTAGCACGTGGTGAT | -0.04 |
| TAGTACACGTGGCGGA | -0.01 |
| TTGGGCACGTGAAACG | 0.21 |
| GGGTTCACGTGACAGG | 0.49 |
| TGTTCCACGTGGCTTT | 0.05 |
| TTCTGCACGTGGTTGA | -0.14 |
| TGGGGCACGTGCGGGC | -0.13 |
| GAGAGCACGTGAGGTT | 0.22 |
| TGTGTCACGTGGATTG | 0.14 |
| ACTATCACGTGGAGGT | 0.16 |
| GTTGTCACGTGTTCTG | 0.27 |
| TTAGGCACGTGGTTGA | -0.01 |
| GGTTGCACGTGTATGT | 0.11 |
| GGTAACACGTGGTTGC | -0.02 |
| TGTTACACGTGCGGGA | 0.06 |
| TGTCGCACGTGGGTCT | -0.38 |

| Sequence | relative binding free energy [kcal/mol] |
| --- | --- |
| TGTTTCACGTGGGAGC | 0.24 |
| CGTGTCACGTGTGTGG | 0.02 |
| TGAGTCACGTGTGTAC | 0.21 |
| GGGTGCACGTGCCCGG | -0.19 |
| GATATCACGTGGGCAT | 0.07 |
| TCTCTCACGTGGTTTT | 0.18 |
| GTAGGCACGTGAATGA | 0.16 |
| GTCGGCACGTGGGGTT | -0.06 |
| GGGGCCACGTGGGGAT | -0.07 |
| TGGGGCACGTGAAATA | 0.06 |
| TTGATCACGTGGTGTC | -0.01 |
| AGGTACACGTGAGTTG | 0.26 |
| AGCGTCACGTGTGGTA | 0.07 |
| CTTGACACGTGGAATG | 0.13 |
| GCATTCACGTGTGTTG | 0.2 |
| CGTTACACGTGTGGGC | 0.1 |
| ACTGTCACGTGTTGGG | 0 |
| GTGGTCACGTGACTAA | 0.49 |
| GGGAGCACGTGTAACG | -0.06 |
| CAAATCACGTGTGGTG | 0.18 |
| TAGTTCACGTGTTGTT | 0.32 |

| Sequence | relative binding free energy [kcal/mol] |
| --- | --- |
| GACGTCACGTGTTGGT | 0.26 |
| ATGTTCACGTGGAGCG | 0.31 |
| GTGTCCACGTGTGCGT | -0.07 |
| CATGGCACGTGGGGCC | -0.1 |
| GAATGCACGTGATGTA | 0.34 |
| TGTGGCACGTGTGGAG | -0.07 |
| GTGAGCACGTGCCGGG | -0.06 |
| ATGTGCACGTGATTTG | 0.01 |
| GGTATCACGTGATTGT | 0.27 |
| GTACGCACGTGGGTAT | -0.16 |
| GTTTGCACGTGGGCTT | -0.11 |
| GATTACACGTGAAAGT | 0.51 |
| AAGAGCACGTGGTGGT | -0.09 |
| GGCTTCACGTGTGTGA | 0.24 |
| TTAATCACGTGTGACG | 0.17 |
| TATGTCACGTGACTTT | 0.16 |
| AGACGCACGTGGTAAG | -0.03 |
| AGGTCCACGTGCGGGT | 0 |
| CCGGGCACGTGGGGGC | -0.23 |
| CTTAGCACGTGAGGGC | 0.33 |
| TTACTCACGTGTTTGT | 0.13 |
